The supplement of paper PMC4604168 (melanoma cell lines)
The list shows a part of the results. Most values come without repeats; read them as rough.

Legend:
Test in all cases: cell count relative to DMSO control; melanoma cells; higher = more viable cells
Settings in all cases: library dose: standard library concentration; 72 h
[1] = system: SkMel28
[2] = system: SkMel2
[3] = system: SkMel30
[4] = system: SkMel5
[5] = system: UACC257
[6] = system: UACC62
[7] = system: WM115
[8] = system: WM1716
[9] = system: WM3526
[10] = system: WM1745
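Further: cells treated in 1,536-well plates, then fixed and DAPI-stained, with nuclei counted from automated high-throughput microscope images.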

Structure (SMILES)	cell count [1]	cell count [2]	cell count [3]	cell count [4]	cell count [5]	cell count [6]	cell count [7]	cell count [8]	cell count [9]	cell count [10]
Cn1c(=O)n(-c2ccc(C(C)(C)C#N)cc2)c2c3cc(-c4cnc5ccccc5c4)ccc3ncc21 + COC(=O)c1sccc1S(=O)(=O)Nc1ccc(Nc2ccccc2)cc1OC [GSK0660] (first compound 0.02 µM, partner dose 5 µM)	47.5%	62.8%	72.1%	62.4%	77.4%	69.4%	73.3%	75.1%	65.7%	
Cc1cn(-c2cc(NC(=O)c3ccc(C)c(Nc4nccc(-c5cccnc5)n4)c3)cc(C(F)(F)F)c2)cn1 [nilotinib] + Cc1cc([N+](=O)[O-])ccc1NS(=O)(=O)c1cc(Cl)ccc1Cl [FH535] (first compound 1 µM, partner dose 5 µM)	61.1%	85.6%	96.6%	82.4%	85.2%	89.3%	84.2%	109%	79.1%	
Cc1cc(Nc2cc(N3CCN(C)CC3)nc(/C=C/c3ccccc3)n2)n[nH]1 + Cn1cc(/C=C2\C(=O)Nc3cccnc32)c2ccccc21 [GW441756] (first compound 0.2 µM, partner dose 2 µM)	50.7%	88.8%	86.8%	57.1%	72.6%	49.3%	70.9%	115%	75.9%	
CC(C)C[C@H](NC(=O)[C@H](Cc1ccccc1)NC(=O)c1cnccn1)B(O)O [Bortezomib] + CCN(CC)CCCCNc1ncc2cc(-c3cc(OC)cc(OC)c3)c(NC(=O)NC(C)(C)C)nc2n1 [PD173074] (first compound 0.005 µM, partner dose 0.5 µM)	33.1%		39.5%	34.1%	107%	65.1%	30.2%	21.9%	44%	
Cc1cn(-c2cc(NC(=O)c3ccc(C)c(Nc4nccc(-c5cccnc5)n4)c3)cc(C(F)(F)F)c2)cn1 [nilotinib] + CCc1ccc(CCOc2ccc(CC3SC(=O)NC3=O)cc2)nc1 [pioglitazone] (first compound 1 µM, partner dose 10 µM)	95.8%	119%	100%	77%	123%	69.3%	122%	100%	108%	
Cc1cn(-c2cc(NC(=O)c3ccc(C)c(Nc4nccc(-c5cccnc5)n4)c3)cc(C(F)(F)F)c2)cn1 [nilotinib] + Cn1cncc1[C@@](N)(c1ccc(Cl)cc1)c1ccc2c(c1)c(-c1cccc(Cl)c1)cc(=O)n2C [tipifarnib] (first compound 1 µM, partner dose 0.05 µM)	48.7%	71.2%	95.9%	59.9%	102%	62.6%	90%		63.9%	112%
Cn1c(=O)n(-c2ccc(C(C)(C)C#N)cc2)c2c3cc(-c4cnc5ccccc5c4)ccc3ncc21 + O=C(Nc1ccccc1)c1cc([N+](=O)[O-])ccc1Cl [GW9662] (first compound 0.02 µM, partner dose 10 µM)	30.4%	56.9%	82.8%	78.2%	96.6%	72.3%	73.2%	86.6%	76.1%	
Cn1c(=O)n(-c2ccc(C(C)(C)C#N)cc2)c2c3cc(-c4cnc5ccccc5c4)ccc3ncc21 + O=S(=O)(c1ccccc1)N(CC(F)(F)F)c1ccc(C(O)(C(F)(F)F)C(F)(F)F)cc1 [T0901317] (first compound 0.02 µM, partner dose 7 µM)	32.1%	43.5%	63.8%	69.2%	84.5%	71.3%	53.4%	79.2%	67.8%	
Cc1cc(Nc2cc(N3CCN(C)CC3)nc(/C=C/c3ccccc3)n2)n[nH]1 + N#Cc1c(O)c2c(-c3ccc(-c4ccccc4O)cc3)csc2[nH]c1=O [A769662] (first compound 0.2 µM, partner dose 10 µM)	77.1%	95.1%	115%	91.4%	80.1%	64%	82.9%	90.1%	92.2%	
CC(C)C[C@H](NC(=O)[C@H](Cc1ccccc1)NC(=O)c1cnccn1)B(O)O [Bortezomib] + O=C1NC(=O)/C(=C/c2ccc(-c3ccc(F)cc3O)o2)S1 [AS252424] (first compound 0.005 µM, partner dose 5 µM)	31.3%	49.4%	38%	27.4%	74.9%	79.8%	27.3%	17.4%	28.7%	
Cc1cc(Nc2cc(N3CCN(C)CC3)nc(/C=C/c3ccccc3)n2)n[nH]1 + O=C(Nc1ccccc1)c1cc([N+](=O)[O-])ccc1Cl [GW9662] (first compound 0.2 µM, partner dose 10 µM)	43.1%	109%	88.6%	76.4%	75.4%	90.9%	43.1%	79.3%	69.1%	
Cn1c(=O)n(-c2ccc(C(C)(C)C#N)cc2)c2c3cc(-c4cnc5ccccc5c4)ccc3ncc21 + CC(C)(C)c1cnc(CSc2cnc(NC(=O)C3CCNCC3)s2)o1 [SNS-032] (first compound 0.02 µM, partner dose 0.05 µM)	40.7%		52.7%	57.9%	82.7%	89.2%	60.9%	61.7%	67.8%	96.4%
Cc1cn(-c2cc(NC(=O)c3ccc(C)c(Nc4nccc(-c5cccnc5)n4)c3)cc(C(F)(F)F)c2)cn1 [nilotinib] + CNC(=O)c1cc(Oc2ccc(NC(=O)Nc3ccc(Cl)c(C(F)(F)F)c3)cc2)ccn1 [sorafenib] (first compound 1 µM, partner dose 2 µM)		111%	86.7%	59.9%	71%	83.5%	90.3%	89.9%	61.2%	85.1%
Cc1cc(Nc2cc(N3CCN(C)CC3)nc(/C=C/c3ccccc3)n2)n[nH]1 + COc1cc2ncnc(Nc3ccc(Oc4ccccc4)cc3)c2cc1OC [SrcI1] (first compound 0.2 µM, partner dose 10 µM)	77.4%	106%	107%	81.3%	89.6%	66%	77%	88.8%	63.8%	
Cn1c(=O)n(-c2ccc(C(C)(C)C#N)cc2)c2c3cc(-c4cnc5ccccc5c4)ccc3ncc21 + COc1ccc(COc2ccc(Cc3cnc(N)nc3N)cc2OC)cc1 [GW2580] (first compound 0.02 µM, partner dose 5 µM)	58.1%	63.4%	78.9%	63.6%	89.2%	73.1%	62.9%	69.3%	89%	
Cc1cn(-c2cc(NC(=O)c3ccc(C)c(Nc4nccc(-c5cccnc5)n4)c3)cc(C(F)(F)F)c2)cn1 [nilotinib] + CC(C)CCN1c2nc(Nc3cc(F)c(O)c(F)c3)ncc2N(C)C(=O)C1C [BID1870] (first compound 1 µM, partner dose 1 µM)	38.7%	68.9%	62.9%	66.8%	101%	64.1%	87.1%	64.2%	66.7%	
COc1ccc(C2=N[C@@H](c3ccc(Cl)cc3)[C@@H](c3ccc(Cl)cc3)N2C(=O)N2CCNC(=O)C2)c(OC(C)C)c1 [Nutlin-3] + c1cc(-c2cnn3cc(-c4ccc(OCCN5CCCCC5)cc4)cnc23)ccn1 [Dorsomorphin] (first compound 0.5 µM, partner dose 2 µM)	44.9%	84.1%	85.3%	58.5%	70.4%	63.4%	47.6%	66.6%	77.1%	
Cc1cn(-c2cc(NC(=O)c3ccc(C)c(Nc4nccc(-c5cccnc5)n4)c3)cc(C(F)(F)F)c2)cn1 [nilotinib] + Oc1nc(-c2ccc(C(F)(F)F)cc2)nc2c1CSCC2 [XAV939] (first compound 1 µM, partner dose 10 µM)	64.5%	78.5%	89.2%	49%	90.2%	84.2%	98.3%	60.3%	100%	
